We go through 31 molecules from publication PMC9911399, “Two distinct binding modes provide the RNA-binding protein RbFox with extraordinary sequence specificity”.

Sequences and labels used below:
T1: RBFOX1 RRM RbFoxmut (Fox-RRM*) (Homo sapiens, UniProt Q9NWB1 109-208, R118D;E147R;N151S;E152T)
T1 sequence: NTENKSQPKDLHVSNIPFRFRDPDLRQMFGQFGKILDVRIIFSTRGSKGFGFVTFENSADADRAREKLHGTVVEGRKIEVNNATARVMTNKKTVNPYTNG

B1: GAAAUAA (DNA:RNA)
RNA: GGGAGACCGGAAUUCAGAUUGUCCGAAAUAAUUAAAUCCCGUCGUAGCCACCA
DNA 1: CAATCTGAATTCCGGTCTCCC
DNA 2: TGGTGGCTACGACGGGATT
B2: GGAGACC (DNA:RNA)
RNA: B1 RNA with A26G, A28G, U29A, A30C, A31C
DNA 1: CAATCTGAATTCCGGTCTCCC
DNA 2: TGGTGGCTACGACGGGATT
B3: UACCGAG (DNA:RNA)
RNA: B1 RNA with G25U, A27C, A28C, U29G, A31G
DNA 1: CAATCTGAATTCCGGTCTCCC
DNA 2: TGGTGGCTACGACGGGATT
B4: CUAUGGC (DNA:RNA)
RNA: B1 RNA with G25C, A26U, A28U, U29G, A30G, A31C
DNA 1: CAATCTGAATTCCGGTCTCCC
DNA 2: TGGTGGCTACGACGGGATT
B5: GGUUUGA (DNA:RNA)
RNA: B1 RNA with A26G, A27U, A28U, A30G
DNA 1: CAATCTGAATTCCGGTCTCCC
DNA 2: TGGTGGCTACGACGGGATT
B6: GGGCCGU (DNA:RNA)
RNA: B1 RNA with A26G, A27G, A28C, U29C, A30G, A31U
DNA 1: CAATCTGAATTCCGGTCTCCC
DNA 2: TGGTGGCTACGACGGGATT
B7: CCAGAUU (DNA:RNA)
RNA: B1 RNA with G25C, A26C, A28G, U29A, A30U, A31U
DNA 1: CAATCTGAATTCCGGTCTCCC
DNA 2: TGGTGGCTACGACGGGATT
B8: GGCAUUC (DNA:RNA)
RNA: B1 RNA with A26G, A27C, A30U, A31C
DNA 1: CAATCTGAATTCCGGTCTCCC
DNA 2: TGGTGGCTACGACGGGATT
B9: UGCCUCG (DNA:RNA)
RNA: B1 RNA with G25U, A26G, A27C, A28C, A30C, A31G
DNA 1: CAATCTGAATTCCGGTCTCCC
DNA 2: TGGTGGCTACGACGGGATT
B10: CCGUGUC (DNA:RNA)
RNA: GGGAGACCGGAAUUCAGAUUGUCCCCGUGUCUUAAAUCCCGUCGUAGCCACCA
DNA 1: CAATCTGAATTCCGGTCTCCC
DNA 2: TGGTGGCTACGACGGGATT
B11: AUAGUAA (DNA:RNA)
RNA: B1 RNA with G25A, A26U, A28G
DNA 1: CAATCTGAATTCCGGTCTCCC
DNA 2: TGGTGGCTACGACGGGATT
B12: UACGCGG (DNA:RNA)
RNA: B1 RNA with G25U, A27C, A28G, U29C, A30G, A31G
DNA 1: CAATCTGAATTCCGGTCTCCC
DNA 2: TGGTGGCTACGACGGGATT
B13: GCCAGAA (DNA:RNA)
RNA: B1 RNA with A26C, A27C, U29G
DNA 1: CAATCTGAATTCCGGTCTCCC
DNA 2: TGGTGGCTACGACGGGATT
B14: GCACGCA (DNA:RNA)
RNA: B1 RNA with A26C, A28C, U29G, A30C
DNA 1: CAATCTGAATTCCGGTCTCCC
DNA 2: TGGTGGCTACGACGGGATT
B15: AUUUAUU (DNA:RNA)
RNA: B10 RNA with C25A, C26U, G27U, G29A, C31U
DNA 1: CAATCTGAATTCCGGTCTCCC
DNA 2: TGGTGGCTACGACGGGATT
B16: CUCACCG (DNA:RNA)
RNA: B10 RNA with C26U, G27C, U28A, G29C, U30C, C31G
DNA 1: CAATCTGAATTCCGGTCTCCC
DNA 2: TGGTGGCTACGACGGGATT
B17: GCCAAAG (DNA:RNA)
RNA: B1 RNA with A26C, A27C, U29A, A31G
DNA 1: CAATCTGAATTCCGGTCTCCC
DNA 2: TGGTGGCTACGACGGGATT
B18: CGGCCGU (DNA:RNA)
RNA: B10 RNA with C26G, U28C, G29C, U30G, C31U
DNA 1: CAATCTGAATTCCGGTCTCCC
DNA 2: TGGTGGCTACGACGGGATT
B19: GUUGGAG (DNA:RNA)
RNA: B1 RNA with A26U, A27U, A28G, U29G, A31G
DNA 1: CAATCTGAATTCCGGTCTCCC
DNA 2: TGGTGGCTACGACGGGATT
B20: CGGCAGG (DNA:RNA)
RNA: B10 RNA with C26G, U28C, G29A, U30G, C31G
DNA 1: CAATCTGAATTCCGGTCTCCC
DNA 2: TGGTGGCTACGACGGGATT
B21: ACAUGGG (DNA:RNA)
RNA: B10 RNA with C25A, G27A, U30G, C31G
DNA 1: CAATCTGAATTCCGGTCTCCC
DNA 2: TGGTGGCTACGACGGGATT
B22: UGUGUAA (DNA:RNA)
RNA: B1 RNA with G25U, A26G, A27U, A28G
DNA 1: CAATCTGAATTCCGGTCTCCC
DNA 2: TGGTGGCTACGACGGGATT
B23: GCCGCCC (DNA:RNA)
RNA: B10 RNA with C25G, G27C, U28G, G29C, U30C
DNA 1: CAATCTGAATTCCGGTCTCCC
DNA 2: TGGTGGCTACGACGGGATT
B24: ACGAAAC (DNA:RNA)
RNA: B10 RNA with C25A, U28A, G29A, U30A
DNA 1: CAATCTGAATTCCGGTCTCCC
DNA 2: TGGTGGCTACGACGGGATT
B25: AACAAUG (DNA:RNA)
RNA: B1 RNA with G25A, A27C, U29A, A30U, A31G
DNA 1: CAATCTGAATTCCGGTCTCCC
DNA 2: TGGTGGCTACGACGGGATT
B26: ACUUCCU (DNA:RNA)
RNA: B10 RNA with C25A, G27U, G29C, U30C, C31U
DNA 1: CAATCTGAATTCCGGTCTCCC
DNA 2: TGGTGGCTACGACGGGATT
B27: UGCGAAC (DNA:RNA)
RNA: B10 RNA with C25U, C26G, G27C, U28G, G29A, U30A
DNA 1: CAATCTGAATTCCGGTCTCCC
DNA 2: TGGTGGCTACGACGGGATT
B28: ACUGAUU (DNA:RNA)
RNA: B10 RNA with C25A, G27U, U28G, G29A, C31U
DNA 1: CAATCTGAATTCCGGTCTCCC
DNA 2: TGGTGGCTACGACGGGATT
B29: AGGGAAG (DNA:RNA)
RNA: B10 RNA with C25A, C26G, U28G, G29A, U30A, C31G
DNA 1: CAATCTGAATTCCGGTCTCCC
DNA 2: TGGTGGCTACGACGGGATT
B30: UCCGGAC (DNA:RNA)
RNA: B10 RNA with C25U, G27C, U28G, U30A
DNA 1: CAATCTGAATTCCGGTCTCCC
DNA 2: TGGTGGCTACGACGGGATT
B31: GCACGGC (DNA:RNA)
RNA: B10 RNA with C25G, G27A, U28C, U30G
DNA 1: CAATCTGAATTCCGGTCTCCC
DNA 2: TGGTGGCTACGACGGGATT

Residue numbers refer to the chain shown, from its start. This is one part of the list.

In the test the target is T1, RBFOX1 RRM RbFoxmut (Fox-RRM*). Put plainly: EMSA; HiTS-Eq, 1 nM pool, 10 min; buffer printed only for the single-RNA assays: 10 mM Tris pH 7.5, 150 mM NaCl, 3.4 mM EDTA, 0.001% NP-40, 30 C. As to conditions: tags: His6 N-terminal (pET28a); label: 5' 32P. The essentials: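 Relative association constants, normalised to the cognate motif, were derived by comparing read counts of each RNA species with those of the control reaction. The RNA sequenced was the free fraction, separated by 8% native PAGE after a 10 min equilibration in 50 µL of 1 nM 5′-radiolabelled RNA (7 randomized nucleotides) with increasing concentrations of purified wild-type or mutant RbFox RRM.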
(A gel shift assay detects complexes by their altered migration in electrophoresis.)
As to B1, the binding signal was 0.0767 KA relative to UGCAUGU.
For B2 the value was 0.0796 KA relative to UGCAUGU; for B3, 0.0833 KA relative to UGCAUGU; for B4, 0.103 KA relative to UGCAUGU.
The figure for B5 is 0.293 KA relative to UGCAUGU; for B6 it is 0.134 KA relative to UGCAUGU; for B7 it is 0.0808 KA relative to UGCAUGU.
The figure for B8 is 0.119 KA relative to UGCAUGU; for B9 it is 0.294 KA relative to UGCAUGU; for B10 it is 0.179 KA relative to UGCAUGU.
Consider B11, for which the binding signal is 0.118 KA relative to UGCAUGU.
For B12 the value was 0.0775 KA relative to UGCAUGU; for B13, 0.0878 KA relative to UGCAUGU; for B14, 0.214 KA relative to UGCAUGU.
On to B15, for which the binding signal was 0.152 KA relative to UGCAUGU.
For B16 the value was 0.0937 KA relative to UGCAUGU.
The figure for B17 is 0.092 KA relative to UGCAUGU; for B18 it is 0.0918 KA relative to UGCAUGU.
The figure for B19 is 0.118 KA relative to UGCAUGU; for B20 it is 0.0879 KA relative to UGCAUGU; for B21 it is 0.0899 KA relative to UGCAUGU.
Take B22: the binding signal is 0.111 KA relative to UGCAUGU.
In the case of B23, the binding signal is 0.065 KA relative to UGCAUGU.
For B24 the value was 0.0863 KA relative to UGCAUGU.
For B25, the binding signal was 0.0359 KA relative to UGCAUGU.
For B26 the value was 0.0598 KA relative to UGCAUGU; for B27, 0.0784 KA relative to UGCAUGU; for B28, 0.0776 KA relative to UGCAUGU.
For B29 the value was 0.144 KA relative to UGCAUGU; for B30, 0.0472 KA relative to UGCAUGU; for B31, 0.232 KA relative to UGCAUGU.
